# PubChem BioAssay AID1461 (National Center for Advancing Translational Sciences (NCATS), 2008)
# Screen size: about 220,000 compounds; about 2,300 (1%) were called active. Inconclusive results, whose numbers are uncertain, are shown with a selection of clear calls. Calls come from the whole dose curve; as a rule, active = well fitted inhibition curve with a large enough effect; inconclusive = small, poorly fitted or top-dose-only effect, or effect the other way; inactive = no such curve, though single readings can be large or run the other way. Potencies of inconclusive entries are left out as doubtful fits.
# Target: Neuropeptide S receptor (Homo sapiens) (UniProt Q6W5P4)
# Test: qHTS Assay for Antagonists of the Neuropeptide S Receptor: cAMP Signal Transduction; note: nearly all actives have a fitted effect of over 50% in size
# Details: CHO-NPSR cells, cAMP TR-FRET, antagonist mode; series mostly up to 38.3 µM
# Potency is the fitted concentration of half-maximal effect; tags give direction and shape of the fitted curve.
# UniProt Q6W5P4, sequence (Q6W5P4 whole entry, looked up): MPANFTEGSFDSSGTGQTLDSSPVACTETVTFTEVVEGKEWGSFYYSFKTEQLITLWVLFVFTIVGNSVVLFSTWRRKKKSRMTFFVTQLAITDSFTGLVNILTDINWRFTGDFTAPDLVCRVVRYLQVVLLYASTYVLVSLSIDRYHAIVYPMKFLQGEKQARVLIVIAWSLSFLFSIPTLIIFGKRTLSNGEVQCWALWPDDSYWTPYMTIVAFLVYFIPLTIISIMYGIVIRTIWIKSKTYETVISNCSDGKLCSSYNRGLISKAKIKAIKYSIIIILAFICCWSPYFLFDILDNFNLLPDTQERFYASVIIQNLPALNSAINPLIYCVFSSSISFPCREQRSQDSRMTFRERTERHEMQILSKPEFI
row,Structure (SMILES),Potency
1,CCN(CC)CCCN(Cc1cc2ccc(C)c(C)c2[nH]c1=O)C(=O)NC1CCCCC1,"inconclusive [inhibitor, partial curve]"
2,O=[N+]([O-])c1cc(C(F)(F)F)cc([N+](=O)[O-])c1NCCNC(=S)Nc1cccc(F)c1,"inconclusive [activator, single point]"
3,CC1CCN(S(=O)(=O)c2ccc(NC(=O)Cn3nnc(-c4ccccc4)n3)cc2)CC1,"inconclusive [inhibitor, single point]"
4,COC(=O)c1c(NC(=O)CN(c2ccc(C)c(C)c2)S(C)(=O)=O)sc2c1CCCC2,"inconclusive [inhibitor, full curve, poor fit]"
5,Cc1ccccc1Cc1c(C)nc2c(C(=O)NCc3ccc4c(c3)OCO4)cnn2c1C,"inconclusive [inhibitor, partial curve]"
6,Cc1ccc(NC2=Nc3ccccc3N3C2=Nc2c(c(C)nn2-c2ccccc2)C3c2ccc(O)c(O)c2)cc1 (configuration not stated),"inconclusive [inhibitor, single point]"
7,COC(=O)c1[nH]c2c(c1C)C(=O)CC(c1cccs1)C2 (configuration not stated),inactive
8,c1coc(Cn2c(-c3ccco3)nc3ccccc32)c1,inactive
9,Cn1c(SCC(=O)OCC(=O)c2ccccc2)nnc1-c1cccs1,"inconclusive [inhibitor, single point]"
10,Cc1nn(Cc2ccc(Cl)c(Cl)c2)c(C)c1NC(=O)c1cc(CC(C)C)on1,"inconclusive [inhibitor, single point]"
11,C=CCn1c(-c2csc(-c3ccccc3)n2)n[nH]c1=S,"inconclusive [inhibitor, single point]"
12,COc1cccc(NC(=S)N2CCCN(Cc3ccc(F)cc3)C2)c1,inactive
13,CN(C)c1ccnc(N(Cc2ccccc2)Cc2ccccc2)c1C#N,"inconclusive [inhibitor, single point]"
14,COc1cccc(-c2cc(C(=O)N3C(C)CCCC3C)no2)c1 (configuration not stated),"inconclusive [inhibitor, single point]"
15,COc1ccc(CN(C(=S)Nc2ccccc2)C2CC(=O)N(c3ccc(Cl)cc3)C2=O)cc1 (configuration not stated),"inconclusive [inhibitor, single point]"
16,CCN(C(=O)c1ccc(Cl)cc1[N+](=O)[O-])c1ccccc1C,inactive
17,CCOC(=O)/C(=C/c1c2ccccc2cc2ccccc12)NC(=O)c1ccccc1,"inconclusive [inhibitor, partial curve]"
18,COc1ccc(CCC(C)Nc2cccc(C)c2)cc1 (configuration not stated),"inconclusive [inhibitor, single point]"
19,COc1ccc(Cc2nn3c(Cn4nnc5ccccc54)nnc3s2)cc1,inactive
20,CC(C)c1cc(C(=O)N2CCN(C(c3ccccc3)c3ccccc3)CC2)no1,"inconclusive [inhibitor, single point]"
21,Cc1sc2nc(C(C)C)nc(SCC(=O)N3c4ccccc4CC3C)c2c1C (configuration not stated),"inconclusive [inhibitor, single point]"

row,Structure (SMILES),Potency
1,Cc1ccc(-n2c(C)cc(=O)cc2C)c(C)c1,"inconclusive [inhibitor, single point]"
2,O=C(Nc1cnn(Cc2ccc(Cl)cc2Cl)c1)c1noc2c1CCCC2,inactive
3,CCN1CCN(c2ncc3c(n2)CC(c2ccc(OC)c(OC)c2)CC3=O)CC1 (configuration not stated),inactive
4,CNC(=O)COC(=O)c1ccccc1C(=O)c1ccc(Cl)c([N+](=O)[O-])c1,"inconclusive [inhibitor, single point]"
5,O=C(CSc1nn(-c2ccc(F)cc2)c(=S)s1)NC(=O)NCc1ccco1,"inconclusive [inhibitor, single point]"
6,Cc1ccc(C)c(C(=O)N(Cc2nc(-c3ccc(Cl)cc3)no2)C(C)C)c1,"inconclusive [inhibitor, partial curve, poor fit]"
7,COc1ccc(-c2nc(=S)[nH][nH]2)cc1OC,inactive
8,CCn1ncc(Br)c1C(=O)Nc1sc2c(c1C(N)=O)CCC2,"inconclusive [inhibitor, single point]"
9,CCn1nccc1C(=O)Nc1ccc(S(=O)(=O)NC23CC4CC(CC(C4)C2)C3)cc1,"inconclusive [inhibitor, single point]"
10,COC(=O)c1sc(N)c(C(=O)OC)c1COC(=O)c1c(C)noc1C,"inconclusive [inhibitor, single point]"
11,COCCN1Cc2cccc(C(=O)Nc3cc(C)cc(C)c3)c2C1=O,inactive
12,Cc1cccc(C)c1NC(=O)CSc1nnc(Cn2nnc(-c3ccccc3)n2)n1-c1ccccc1,"inconclusive [inhibitor, single point]"
13,CCOCCCNC(=O)c1ccc(Cn2c(=S)[nH]c3c([nH]c4ccc(OC)cc43)c2=O)cc1,inactive
14,Cc1ccc(-c2nc3ccccn3c2NCc2ccc3c(c2)OCO3)cc1,"inconclusive [inhibitor, single point]"
15,CCn1c(Cn2nnc(-c3ccccc3)n2)nnc1SCC(=O)Nc1cccc(C)c1C,"inconclusive [inhibitor, single point]"
16,CN(CCN1CCc2ccccc2C1)Cc1nc(Cc2ccccc2F)no1,inactive
17,Cc1ccnc(N2C(=O)c3ccccc3C2Nc2ccccc2Cl)c1 (configuration not stated),"inconclusive [inhibitor, single point]"
18,O=C(Nc1ccc(Oc2ccc(NC(=O)Nc3ccccc3Cl)cc2)cc1)Nc1ccccc1Cl,"inconclusive [activator, partial curve]"
19,COc1ccc(/C=N/NS(=O)(=O)c2ccccc2)cc1OS(=O)(=O)c1ccccc1,"inconclusive [inhibitor, partial curve]"
20,CC(C)CCN1C(=O)CC(NNC(=O)c2ccc(S(=O)(=O)N3CCCC3)cc2)C1=O (configuration not stated),inactive
21,O=C(c1ccc2c(c1)OCO2)[C@@H]1[C@@H]2C(=O)N(C3CCCCC3)C(=O)[C@@H]2C2c3ccccc3C=CN21 (some centres not stated),"inconclusive [inhibitor, partial curve]"
